# Laboratory results: PMC4336329 (PLoS ONE, 2015)
# Screen size: about 310,000 compounds; about 14,000 (4.5%) showed an effect of 50% or more. The effect is printed as a negative number. The list shows a part of the results.
# Target: human ether-à-go-go-related gene (hERG) potassium channel (human, UniProt Q12809)
# Experiment: primary screen, population patch clamp on CHO cells stably expressing hERG
# 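Note: peak tail current of the secondary pulse compared with the same well before compound.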
# Chain of human ether-à-go-go-related gene (hERG) potassium channel (Q12809 whole entry, looked up): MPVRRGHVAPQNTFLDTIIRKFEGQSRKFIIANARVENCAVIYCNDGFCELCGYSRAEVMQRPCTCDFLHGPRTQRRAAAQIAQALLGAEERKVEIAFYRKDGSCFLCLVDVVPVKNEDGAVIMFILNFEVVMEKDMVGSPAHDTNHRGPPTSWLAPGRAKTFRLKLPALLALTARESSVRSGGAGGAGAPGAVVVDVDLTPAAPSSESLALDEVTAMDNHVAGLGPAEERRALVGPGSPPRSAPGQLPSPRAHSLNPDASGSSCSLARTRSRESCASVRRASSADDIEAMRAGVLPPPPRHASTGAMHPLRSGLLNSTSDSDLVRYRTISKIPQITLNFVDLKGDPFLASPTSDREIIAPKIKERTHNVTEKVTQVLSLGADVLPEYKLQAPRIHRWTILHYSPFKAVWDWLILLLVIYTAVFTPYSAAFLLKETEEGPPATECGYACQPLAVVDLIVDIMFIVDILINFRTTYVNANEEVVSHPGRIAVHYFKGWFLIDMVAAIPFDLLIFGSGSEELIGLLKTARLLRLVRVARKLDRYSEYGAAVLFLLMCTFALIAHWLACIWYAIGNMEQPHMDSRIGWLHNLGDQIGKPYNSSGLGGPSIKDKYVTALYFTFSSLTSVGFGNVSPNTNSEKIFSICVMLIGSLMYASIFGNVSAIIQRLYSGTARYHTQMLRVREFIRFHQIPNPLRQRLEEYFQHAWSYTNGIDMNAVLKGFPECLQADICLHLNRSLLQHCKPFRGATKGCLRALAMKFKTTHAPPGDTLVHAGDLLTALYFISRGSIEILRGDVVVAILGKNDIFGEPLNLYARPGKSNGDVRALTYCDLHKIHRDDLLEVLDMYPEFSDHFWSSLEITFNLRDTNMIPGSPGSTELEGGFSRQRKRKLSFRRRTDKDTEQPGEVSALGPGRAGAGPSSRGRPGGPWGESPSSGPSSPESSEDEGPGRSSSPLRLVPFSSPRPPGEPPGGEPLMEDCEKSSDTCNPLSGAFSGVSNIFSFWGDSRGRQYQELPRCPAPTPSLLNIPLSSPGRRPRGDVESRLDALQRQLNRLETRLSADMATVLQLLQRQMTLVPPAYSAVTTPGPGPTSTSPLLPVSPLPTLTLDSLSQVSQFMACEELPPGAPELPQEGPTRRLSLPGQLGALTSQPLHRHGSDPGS
row,SMILES,"hERG current change (%, negative = inhibition) at 10uM [%]"
1,Cc1cc(C)cc(-n2ncc3c2CCCC3NC(=O)CN2CCCC2=O)c1 (stereo not drawn),30.3
2,CC(=O)N1c2ccc(S(=O)(=O)N(C)CC(=O)NC(C)c3ccccc3)cc2CC1C (stereo not drawn),1.89
3,Cc1cc([N+](=O)[O-])cc2c1NCC1CC=CC21 (stereo not drawn),-30.7
4,O=C(Nc1ccccc1F)N1CCc2ccccc2C1,16.8
5,O=C(CSc1nnc(CNC(=O)c2cccs2)o1)NC1CCCCC1,-24
6,CN(C)S(=O)(=O)Nc1ccc(C(=O)O)cc1,-1.57
7,CC(=O)c1cc2c(cc1N)OCO2,0.058
8,COc1ccc(N2CC(C)(C)C2=O)cc1,18.7
9,CCO[C@@H]1OC(C(=O)N2CCN(Cc3ccccc3)CC2)=C[C@H](c2ccc(C(F)(F)F)cc2)[C@H]1CCCO,-19.7
10,CCOC(=O)CCNC(=O)N1CCCC(CNS(=O)(=O)c2cccs2)C1 (stereo not drawn),11.7
11,CC1CCN(S(=O)(=O)c2ccc(C(=O)N3CCCC(C(F)(F)F)C3)cc2)CC1 (stereo not drawn),-26.1
12,O=C(c1cccc(C(F)(F)F)c1)C1CCCN(C(=O)CCCn2cncn2)C1 (stereo not drawn),-34.7
13,CCOCCN(C(=O)c1ccccc1Cl)c1ccccc1,13.2
14,CCOc1ccc(C(=O)n2cnnc2N)cc1,12.7
15,Cc1ccc(C)c(OCC(=O)Nc2ccccc2C(=O)NC2CC2)c1,7.74
16,COCC1CCN(Cc2c(C(=O)N3CCc4ccccc4C3)nc3ccc(Cl)cn23)C1 (stereo not drawn),-16.3
17,COc1ccc2oc(=N)c(C(=O)Nc3ccccc3Cl)cc2c1,2.18
18,CC1CCC/C=C/C2CC(O)CC2C(O)/C=C/C(=O)O1 (stereo not drawn),-2.12
19,CC(C)(C)c1ccc(C(=O)NNc2cc(Cl)cc(Cl)c2)cc1,13.6
20,COc1ccc(Cl)cc1NC(=O)CN1C(=O)NC(C)(Cc2ccc(OC)c(OC)c2)C1=O (stereo not drawn),-5.21
21,CCn1ccc(C(=O)NCCCN2CCCC2=O)n1,-18.2
22,Cc1cccc(C)c1NC(=O)c1cccc2c1C(=O)N(C1CCCCC1)C2,-7.01
23,CC(=O)Nc1ccc(-c2csc(NC=C3C(=O)OC(C)(C)OC3=O)n2)cc1,27.5

row,SMILES,"hERG current change (%, negative = inhibition) at 10uM [%]"
1,Cc1cc(N)n(-c2ccccn2)n1,12.9
2,CCCCOC(=O)C(C)Nc1n[nH]c(=O)[nH]c1=O (stereo not drawn),15.9
3,CCC(=O)c1ccc(OCC(O)CN2CCN(S(=O)(=O)N3CCCCC3)CC2)cc1 (stereo not drawn),-55.1
4,O=C(NCCNC(=O)c1ccc([N+](=O)[O-])cc1)c1ccncc1,12
5,COc1ccc(Cc2c(O)nc[nH]c2=O)cc1,24.7
6,CC1=NN(C(=O)Cc2ccc([N+](=O)[O-])cc2)C(O)(c2cccnc2)C1 (stereo not drawn),-23.8
7,COc1ccccc1/C=C1\SC(=S)N(CCC(=O)Nc2cccc(O)c2)C1=O,14.1
8,Cc1ccc(-c2nc(CNC(=O)c3ccco3)cs2)cc1,-13.6
9,Cc1cccc(C(=O)NCCc2csc(C)n2)c1,9.69
10,Cc1ccc(CSCCNC(=O)c2cccc([N+](=O)[O-])c2)cc1,-64.1
11,COc1cc(CN2CCNC(=O)C2CC(=O)NC2CCC2)cc(OC)c1 (stereo not drawn),8.68
12,CCOc1ccc(OCCCC(=O)N2CCN(S(=O)(=O)c3ccc(Cl)cc3)CC2)cc1,1.78
13,CC1Oc2ccccc2OC1(O)c1ccccn1 (stereo not drawn),-3.89
14,Cc1ccc(Cl)cc1OCC(=O)NCCOC(=O)Nc1sc(=S)n(C)c1C,-14.1
15,c1ccc2c(c1)[nH]c1ccncc12,-6.67
16,Cc1nc(SCC(=O)NCCc2ccccc2)nc(C)c1C,6.55
17,Cc1ccc(NC(=O)c2ccc(OC(=O)c3ccco3)cc2)cc1,18.3
18,CC(=O)c1cccc(NC(=O)N2CCCC2C(=O)Nc2c(C)cccc2C)c1 (stereo not drawn),3.84
19,CC(C)C(=O)N1CCN(c2ccccc2NC(=O)COc2ccccc2)CC1,-57.6
20,COc1cccc(-n2c(=O)c3ccccc3n3c(=S)[nH]nc23)c1,27.6
21,CCOc1ccc(NC(=O)C2CCCN2S(=O)(=O)c2ccc3c(c2)C(C)(C)C(=O)N3C)cc1 (stereo not drawn),-6.75
22,O=C(Cc1cccs1)NCCc1csc(-c2ccccc2)n1,4.9
